The other results are listed elsewhere or left out. Interaction screen of human proteins with wild-type SARS-CoV-2 proteins by split-DHFR complementation in yeast, 1 µg/mL methotrexate. Value = fitness of the pair (three or more lineages) minus that of the viral protein without a human partner, on a scale set by negative (0) and fused positive (1) controls, mean of up to three cultures; higher = more likely to interact. Active = false discovery rate below 0.05 (one-sided t-test) in at least one culture. Nearly all pairs are not hits, and differences among them are mostly noise (correlation between cultures about 0.3); most hits were seen in one culture only. Human sequences are the Swiss-Prot entries looked up by gene name; the clone may be another isoform. NSP2 values were corrected by the authors for a growth advantage. Listed are human proteins with a hit and a random twelfth of the others.
Key:
Assay in all cases: yeast fitness gain over the viral ORF with no human partner (scaled fitness); higher = more likely to interact
[1] = target: SARS-CoV-2 E
Protocol: (§1)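 Split mouse DHFR complementation in pooled diploid yeast: human ORFeome clones carry one fragment and viral ORFs the other; barcoded lineages compete in 1 µg/mL methotrexate and fitness is read by barcode sequencing in up to three cultures.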

[2] = target: SARS-CoV-2 M
Protocol: as §1

[3] = target: SARS-CoV-2 N
Protocol: as §1

[4] = target: SARS-CoV-2 NSP1
Protocol: as §1

[5] = target: SARS-CoV-2 NSP10
Protocol: as §1

[6] = target: SARS-CoV-2 NSP12
Protocol: as §1

[7] = target: SARS-CoV-2 NSP13
Protocol: as §1

[8] = target: SARS-CoV-2 NSP15
Protocol: as §1

[9] = target: SARS-CoV-2 NSP2
Protocol: as §1

[10] = target: SARS-CoV-2 NSP5
Protocol: as §1

[11] = target: SARS-CoV-2 NSP6
Protocol: as §1

[12] = target: SARS-CoV-2 NSP7
Protocol: as §1

[13] = target: SARS-CoV-2 NSP8
Protocol: as §1

[14] = target: SARS-CoV-2 ORF10
Protocol: as §1

[15] = target: SARS-CoV-2 ORF3A
Protocol: as §1

[16] = target: SARS-CoV-2 ORF3B
Protocol: as §1

[17] = target: SARS-CoV-2 ORF6
Protocol: as §1

[18] = target: SARS-CoV-2 ORF7A
Protocol: as §1

[19] = target: SARS-CoV-2 ORF7B
Protocol: as §1

[20] = target: SARS-CoV-2 ORF8
Protocol: as §1

[21] = target: SARS-CoV-2 ORF9B
Protocol: as §1

[22] = target: SARS-CoV-2 S
Protocol: as §1

[23] = target: SARS-CoV-2 NSP16
Protocol: as §1

[24] = target: SARS-CoV-2 NSP4
Protocol: as §1

[25] = target: SARS-CoV-2 NSP9
Protocol: as §1

[26] = target: SARS-CoV-2 ORF9Bwu (the 73-codon ORF)
Protocol: as §1

Measured: yeast fitness gain

B1: HEYL, Q9NQ87 (protein)
chain: MKRPKEPSGSDGESDGPIDVGQEGQLSQMARPLSTPSSSQMQARKKHRGIIEKRRRDRINSSLSELRRLVPTAFEKQGSSKLEKAEVLQMTVDHLKMLHATGGTGFFDARALAVDFRSIGFRECLTEVIRYLGVLEGPSSRADPVRIRLLSHLNSYAAEMEPSPTPTGPLAFPAWPWSFFHSCPGLPALSNQLAILGRVPSPVLPGVSSPAYPIPALRTAPLRRATGIILPARRNVLPSRGASSTRRARPLERPATPVPVAPSSRAARSSHIAPLLQSSSPTPPGPTGSAAYVAVPTPNSSSPGPAGRPAGAMLYHSWVSEITEIGAF
inactive: [1] 0.0267 | [2] -0.0432 | [3] -0.231 | [4] -0.0362 | [5] 0.0388 | [6] -0.0752 | [7] 0.00556 | [8] -0.394 | [9] -0.13 | [10] 0.0324 | [11] -0.00907 | [12] 0.0731 | [13] 0.0883 | [14] -0.101 | [15] -0.169 | [16] 0.028 | [17] 0.0558 | [18] -0.222 | [19] -0.0335 | [20] 0.0573 | [21] -0.16 | [22] 0.103

B2: TEX2, Q8IWB9 (protein)
chain: MTSLYGRHAEKTTDMPKPSAPKVHVQRSVSRDTIAIHFSASGEEEEEEEEEFREYFEEGLDDQSIVTGLEAKEDLYLEPQVGHDPAGPAASPVLADGLSVSQAPAILPVSKNTVKLLESPVPAAQVLSTVPLAVSPGSSSSGPLASSPSVSSLSEQKTSSSSPLSSPSKSPILSSSASTSTLSSAKPFMSLVKSLSTEVEPKESPHPARHRHLMKTLVKSLSTDTSRQESDTVSYKPPDSKLNLHLFKQFTQPRNTGGDSKTAPSSPLTSPSDTRSFFKVPEMEAKIEDTKRRLSEVIYEPFQLLSKIIGEESGSHRPKALSSSASELSNLSSLNGHLESNNNYSIKEEECDSEGDGYGSDSNIPRSDHPKSTGEPTREIELKSSQGSSLKDLGLKTSSLVLEKCSLSALVSKEDEEFCELYTEDFDLETEGESKVDKLSDIPLKPEVLAEDGVVLDSEDEVDSAVQHPELPVKTLGFFIMCVYVYLILPLPHYVSGLFLGIGLGFMTAVCVIWFFTPPSAHKYHKLHKNLRHWNTRSLDIKEPEILKGWMNEIYNYDPETYHATLTHSVFVRLEGGTLRLSKPNKNISRRASYNEPKPEVTYISQKIYDLSDSKIYLVPKTLARKRIWNKKYPICIELGQQDDFMSKAQTDKETSEEKPPAEGSEDPKKPPRPQEGTRSSQRDQILYLFGRTGREKEEWFRRFILASKLKSEIKKSSGVSGGKPGLLPAHSRHNSPSGHLTHSRSSSKGSVEEIMSQPKQKELAGSVRQKMLLDYSVYMGRCVPQESRSPQRSPLQSAESSPTAGKKLPEVPPSEEEEQEAWVNALLGRIFWDFLGEKYWSDLVSKKIQMKLSKIKLPYFMNELTLTELDMGVAVPKILQAFKPYVDHQGLWIDLEMSYNGSFLMTLETKMNLTKLGKEPLVEALKVGEIGKEGCRPRAFCLADSDEESSSAGSSEEDDAPEPSGGDKQLLPGAEGYVGGHRTSKIMRFVDKITKSKYFQKATETEFIKKKIEEVSNTPLLLTVEVQECRGTLAVNIPPPPTDRVWYGFRKPPHVELKARPKLGEREVTLVHVTDWIEKKLEQEFQKVFVMPNMDDVYITIMHSAMDPRSTSCLLKDPPVEAADQP
inactive: [1] -0.0527 | [2] 0.124 | [3] 0.0358 | [4] 0.0515 | [5] -0.0314 | [6] -0.00603 | [7] -0.0565 | [8] -0.00206 | [23] -0.0205 | [9] -0.109 | [24] -0.272 | [10] 0.000856 | [11] -0.0182 | [12] 0.0472 | [13] -0.00611 | [25] -0.178 | [14] 0.0144 | [15] 0.0573 | [16] -0.0376 | [17] 0.0374 | [18] 0.00898 | [19] -0.043 | [20] 0.0315 | [21] -0.0291 | [26] 0.0416 | [22] 0.0613

B3: TGS1, Q96RS0 (protein)
chain: MCCEKWSRVAEMFLFIEEREDCKILCLCSRAFVEDRKLYNLGLKGYYIRDSGNNSGDQATEEEEGGYSCGTAESHDSKGIGLDESELDSEAELMRSMGLPLQFGRITAHKDFEVSMNTRNKVKIKKKKHQKKYLDEIVQESWRKEYEEDDILASDDPSSIEQYENTRTYELQSKKDTETENPPVENTLSPKLEITEKWEKYWNEYGGGLLWQSWQEKHPGQALSSEPWNFPDTKEEWEQHYSQLYWYYLEQFQYWEAQGWTFDASQSCDTDTYTSKTEADDKNDEKCMKVDLVSFPSSPIMVDNDSSGTSDKDHSEILDGISNIKLNSEEVTQSQLDSCTSHDGHQQLSEVSSKRECPASGQSEPRNGGTNEESNSSGNTNTDPPAEDSQKSSGANTSKDRPHASGTDGDESEEDPPEHKPSKLKRSHELDIDENPASDFDDSGSLLGFKYGSGQKYGGIPNFSHRQVRYLEKNVKLKSKYLDMRRQIKMKNKHIFFTKESEKPFFKKSKILSKVEKFLTWVNKPMDEEASQESSSHDNVHDASTSSDSEEQDMSVKKGDDLLETNNPEPEKCQSVSSAGELETENYERDSLLATVPDEQDCVTQEVPDSRQAETEAEVKKKKNKKKNKKVNGLPPEIAAVPELAKYWAQRYRLFSRFDDGIKLDREGWFSVTPEKIAEHIAGRVSQSFKCDVVVDAFCGVGGNTIQFALTGMRVIAIDIDPVKIALARNNAEVYGIADKIEFICGDFLLLASFLKADVVFLSPPWGGPDYATAETFDIRTMMSPDGFEIFRLSKKITNNIVYFLPRNADIDQVASLAGPGGQVEIEQNFLNNKLKTITAYFGDLIRRPASET
inactive: [1] 0.085 | [2] -0.0153 | [3] 0.0872 | [4] -0.027 | [5] -0.00258 | [6] 0.0621 | [7] -0.075 | [8] 0.0486 | [23] -0.11 | [9] -0.154 | [24] -0.332 | [10] 0.0932 | [11] 0.011 | [12] 0.0747 | [13] 0.00191 | [25] -0.0226 | [14] 0.00245 | [15] -0.152 | [16] 0.0054 | [17] 0.00722 | [18] -0.0413 | [19] -0.0151 | [20] 0.0251 | [21] 0.0382 | [26] -0.0156 | [22] 0.00462

Reference: the supplement of paper PMC11741623
